For 31 molecules, binding signal results are on record in PMC9911399, “Two distinct binding modes provide the RNA-binding protein RbFox with extraordinary sequence specificity”.

Sequences and labels used below:
T1: RBFOX1 RRM RbFoxmut (Fox-RRM*) (Homo sapiens, UniProt Q9NWB1 109-208, R118D;E147R;N151S;E152T)
T1 sequence: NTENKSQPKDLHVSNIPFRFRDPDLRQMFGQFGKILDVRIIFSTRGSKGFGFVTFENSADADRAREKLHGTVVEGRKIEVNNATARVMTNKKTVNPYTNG

B1: CGCUUAA (DNA:RNA)
RNA: GGGAGACCGGAAUUCAGAUUGUCCCGCUUAAUUAAAUCCCGUCGUAGCCACCA
DNA 1: CAATCTGAATTCCGGTCTCCC
DNA 2: TGGTGGCTACGACGGGATT
B2: AAUCGAG (DNA:RNA)
RNA: B1 RNA with C25A, G26A, C27U, U28C, U29G, A31G
DNA 1: CAATCTGAATTCCGGTCTCCC
DNA 2: TGGTGGCTACGACGGGATT
B3: GGUUAGU (DNA:RNA)
RNA: B1 RNA with C25G, C27U, U29A, A30G, A31U
DNA 1: CAATCTGAATTCCGGTCTCCC
DNA 2: TGGTGGCTACGACGGGATT
B4: CGAAAAU (DNA:RNA)
RNA: B1 RNA with C27A, U28A, U29A, A31U
DNA 1: CAATCTGAATTCCGGTCTCCC
DNA 2: TGGTGGCTACGACGGGATT
B5: AAAGCCC (DNA:RNA)
RNA: GGGAGACCGGAAUUCAGAUUGUCCAAAGCCCUUAAAUCCCGUCGUAGCCACCA
DNA 1: CAATCTGAATTCCGGTCTCCC
DNA 2: TGGTGGCTACGACGGGATT
B6: UACUUUU (DNA:RNA)
RNA: B1 RNA with C25U, G26A, A30U, A31U
DNA 1: CAATCTGAATTCCGGTCTCCC
DNA 2: TGGTGGCTACGACGGGATT
B7: AUUUUGU (DNA:RNA)
RNA: B1 RNA with C25A, G26U, C27U, A30G, A31U
DNA 1: CAATCTGAATTCCGGTCTCCC
DNA 2: TGGTGGCTACGACGGGATT
B8: GAUUCCU (DNA:RNA)
RNA: B5 RNA with A25G, A27U, G28U, C31U
DNA 1: CAATCTGAATTCCGGTCTCCC
DNA 2: TGGTGGCTACGACGGGATT
B9: AACACGA (DNA:RNA)
RNA: B5 RNA with A27C, G28A, C30G, C31A
DNA 1: CAATCTGAATTCCGGTCTCCC
DNA 2: TGGTGGCTACGACGGGATT
B10: GAUCCCU (DNA:RNA)
RNA: B5 RNA with A25G, A27U, G28C, C31U
DNA 1: CAATCTGAATTCCGGTCTCCC
DNA 2: TGGTGGCTACGACGGGATT
B11: GCCAGUG (DNA:RNA)
RNA: B1 RNA with C25G, G26C, U28A, U29G, A30U, A31G
DNA 1: CAATCTGAATTCCGGTCTCCC
DNA 2: TGGTGGCTACGACGGGATT
B12: UUUGGGA (DNA:RNA)
RNA: B5 RNA with A25U, A26U, A27U, C29G, C30G, C31A
DNA 1: CAATCTGAATTCCGGTCTCCC
DNA 2: TGGTGGCTACGACGGGATT
B13: UAUGACC (DNA:RNA)
RNA: B5 RNA with A25U, A27U, C29A
DNA 1: CAATCTGAATTCCGGTCTCCC
DNA 2: TGGTGGCTACGACGGGATT
B14: GACUGCG (DNA:RNA)
RNA: B5 RNA with A25G, A27C, G28U, C29G, C31G
DNA 1: CAATCTGAATTCCGGTCTCCC
DNA 2: TGGTGGCTACGACGGGATT
B15: CGGUGCC (DNA:RNA)
RNA: B1 RNA with C27G, U29G, A30C, A31C
DNA 1: CAATCTGAATTCCGGTCTCCC
DNA 2: TGGTGGCTACGACGGGATT
B16: GACCUGU (DNA:RNA)
RNA: B1 RNA with C25G, G26A, U28C, A30G, A31U
DNA 1: CAATCTGAATTCCGGTCTCCC
DNA 2: TGGTGGCTACGACGGGATT
B17: CGGGACG (DNA:RNA)
RNA: B5 RNA with A25C, A26G, A27G, C29A, C31G
DNA 1: CAATCTGAATTCCGGTCTCCC
DNA 2: TGGTGGCTACGACGGGATT
B18: UUGGGAU (DNA:RNA)
RNA: B5 RNA with A25U, A26U, A27G, C29G, C30A, C31U
DNA 1: CAATCTGAATTCCGGTCTCCC
DNA 2: TGGTGGCTACGACGGGATT
B19: CCAGUUA (DNA:RNA)
RNA: B1 RNA with G26C, C27A, U28G, A30U
DNA 1: CAATCTGAATTCCGGTCTCCC
DNA 2: TGGTGGCTACGACGGGATT
B20: UCGGCCG (DNA:RNA)
RNA: B5 RNA with A25U, A26C, A27G, C31G
DNA 1: CAATCTGAATTCCGGTCTCCC
DNA 2: TGGTGGCTACGACGGGATT
B21: UGUUCUA (DNA:RNA)
RNA: B1 RNA with C25U, C27U, U29C, A30U
DNA 1: CAATCTGAATTCCGGTCTCCC
DNA 2: TGGTGGCTACGACGGGATT
B22: UCAGGCC (DNA:RNA)
RNA: B5 RNA with A25U, A26C, C29G
DNA 1: CAATCTGAATTCCGGTCTCCC
DNA 2: TGGTGGCTACGACGGGATT
B23: GGGAACA (DNA:RNA)
RNA: B1 RNA with C25G, C27G, U28A, U29A, A30C
DNA 1: CAATCTGAATTCCGGTCTCCC
DNA 2: TGGTGGCTACGACGGGATT
B24: GGUUAAU (DNA:RNA)
RNA: B1 RNA with C25G, C27U, U29A, A31U
DNA 1: CAATCTGAATTCCGGTCTCCC
DNA 2: TGGTGGCTACGACGGGATT
B25: GUCAACU (DNA:RNA)
RNA: B5 RNA with A25G, A26U, A27C, G28A, C29A, C31U
DNA 1: CAATCTGAATTCCGGTCTCCC
DNA 2: TGGTGGCTACGACGGGATT
B26: UUUCGGA (DNA:RNA)
RNA: B1 RNA with C25U, G26U, C27U, U28C, U29G, A30G
DNA 1: CAATCTGAATTCCGGTCTCCC
DNA 2: TGGTGGCTACGACGGGATT
B27: UGCGGGG (DNA:RNA)
RNA: B1 RNA with C25U, U28G, U29G, A30G, A31G
DNA 1: CAATCTGAATTCCGGTCTCCC
DNA 2: TGGTGGCTACGACGGGATT
B28: UCCUUAC (DNA:RNA)
RNA: B1 RNA with C25U, G26C, A31C
DNA 1: CAATCTGAATTCCGGTCTCCC
DNA 2: TGGTGGCTACGACGGGATT
B29: AGCCCCU (DNA:RNA)
RNA: B5 RNA with A26G, A27C, G28C, C31U
DNA 1: CAATCTGAATTCCGGTCTCCC
DNA 2: TGGTGGCTACGACGGGATT
B30: CGGUCAG (DNA:RNA)
RNA: B1 RNA with C27G, U29C, A31G
DNA 1: CAATCTGAATTCCGGTCTCCC
DNA 2: TGGTGGCTACGACGGGATT
B31: ACAAACA (DNA:RNA)
RNA: B5 RNA with A26C, G28A, C29A, C31A
DNA 1: CAATCTGAATTCCGGTCTCCC
DNA 2: TGGTGGCTACGACGGGATT

Positions count from the first letter of the chain named. This is one part of the list.

The experiment deals with T1, RBFOX1 RRM RbFoxmut (Fox-RRM*). Description: EMSA; HiTS-Eq, 1 nM pool, 10 min; buffer printed only for the single-RNA assays: 10 mM Tris pH 7.5, 150 mM NaCl, 3.4 mM EDTA, 0.001% NP-40, 30 C. Conditions: tags: His6 N-terminal (pET28a); label: 5' 32P. In outline:
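Purified RbFox RRM (wild type or mutant) was equilibrated for 10 min in 50 µL with 1 nM of a 5′-radiolabelled pool of RNA with 7 randomized nucleotides, its flanks annealed to DNA oligonucleotides, across increasing protein concentrations. Free RNA was separated by 8% native PAGE, excised, reverse-transcribed, PCR-barcoded and sequenced on an Illumina HiSeq 2500. Relative association constants came from read-count changes of each variant against the control reaction, normalised to the cognate motif.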
With B1, the binding signal was 0.106 KA relative to UGCAUGU. With B2, the binding signal is 0.0786 KA relative to UGCAUGU. As for B3, the binding signal was 0.123 KA relative to UGCAUGU.

For the molecule B4, the binding signal was 0.0737 KA relative to UGCAUGU. In the case of B5 it was 0.066 KA relative to UGCAUGU; in that of B6, 0.097 KA relative to UGCAUGU; in that of B7, 0.147 KA relative to UGCAUGU.

As to B8, the binding signal was 0.0818 KA relative to UGCAUGU. For B9 the value was 0.0643 KA relative to UGCAUGU; for B10, 0.0562 KA relative to UGCAUGU; for B11, 0.121 KA relative to UGCAUGU. For B12 the value was 0.0591 KA relative to UGCAUGU; for B13, 0.0839 KA relative to UGCAUGU; for B14, 0.187 KA relative to UGCAUGU.

For the molecule B15, the binding signal was 0.203 KA relative to UGCAUGU. For B16 the value was 0.0919 KA relative to UGCAUGU. For B17 the value was 0.108 KA relative to UGCAUGU; for B18, 0.0914 KA relative to UGCAUGU; for B19, 0.114 KA relative to UGCAUGU. For B20 the value was 0.123 KA relative to UGCAUGU; for B21, 0.128 KA relative to UGCAUGU; for B22, 0.216 KA relative to UGCAUGU. With B23, the binding signal was 0.0769 KA relative to UGCAUGU. As to B24, the binding signal is 0.0863 KA relative to UGCAUGU. For B25 the value was 0.0718 KA relative to UGCAUGU; for B26, 0.0828 KA relative to UGCAUGU; for B27, 0.0735 KA relative to UGCAUGU. For B28 the value was 0.0887 KA relative to UGCAUGU. In the case of B29 it was 0.0665 KA relative to UGCAUGU; in that of B30, 0.0842 KA relative to UGCAUGU; in that of B31, 0.101 KA relative to UGCAUGU.
